The record followed here is PMC4336329 (PLoS ONE, 2015).

Out of some 310,000 compounds screened, about 14,000 (4.5%) showed an effect of 50% or more. The effect is printed as a negative number. The list shows a part of the results.
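Further: peak tail current of the secondary pulse compared with the same well before compound.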

human ether-à-go-go-related gene (hERG) potassium channel, sequence (Q12809 whole entry, looked up): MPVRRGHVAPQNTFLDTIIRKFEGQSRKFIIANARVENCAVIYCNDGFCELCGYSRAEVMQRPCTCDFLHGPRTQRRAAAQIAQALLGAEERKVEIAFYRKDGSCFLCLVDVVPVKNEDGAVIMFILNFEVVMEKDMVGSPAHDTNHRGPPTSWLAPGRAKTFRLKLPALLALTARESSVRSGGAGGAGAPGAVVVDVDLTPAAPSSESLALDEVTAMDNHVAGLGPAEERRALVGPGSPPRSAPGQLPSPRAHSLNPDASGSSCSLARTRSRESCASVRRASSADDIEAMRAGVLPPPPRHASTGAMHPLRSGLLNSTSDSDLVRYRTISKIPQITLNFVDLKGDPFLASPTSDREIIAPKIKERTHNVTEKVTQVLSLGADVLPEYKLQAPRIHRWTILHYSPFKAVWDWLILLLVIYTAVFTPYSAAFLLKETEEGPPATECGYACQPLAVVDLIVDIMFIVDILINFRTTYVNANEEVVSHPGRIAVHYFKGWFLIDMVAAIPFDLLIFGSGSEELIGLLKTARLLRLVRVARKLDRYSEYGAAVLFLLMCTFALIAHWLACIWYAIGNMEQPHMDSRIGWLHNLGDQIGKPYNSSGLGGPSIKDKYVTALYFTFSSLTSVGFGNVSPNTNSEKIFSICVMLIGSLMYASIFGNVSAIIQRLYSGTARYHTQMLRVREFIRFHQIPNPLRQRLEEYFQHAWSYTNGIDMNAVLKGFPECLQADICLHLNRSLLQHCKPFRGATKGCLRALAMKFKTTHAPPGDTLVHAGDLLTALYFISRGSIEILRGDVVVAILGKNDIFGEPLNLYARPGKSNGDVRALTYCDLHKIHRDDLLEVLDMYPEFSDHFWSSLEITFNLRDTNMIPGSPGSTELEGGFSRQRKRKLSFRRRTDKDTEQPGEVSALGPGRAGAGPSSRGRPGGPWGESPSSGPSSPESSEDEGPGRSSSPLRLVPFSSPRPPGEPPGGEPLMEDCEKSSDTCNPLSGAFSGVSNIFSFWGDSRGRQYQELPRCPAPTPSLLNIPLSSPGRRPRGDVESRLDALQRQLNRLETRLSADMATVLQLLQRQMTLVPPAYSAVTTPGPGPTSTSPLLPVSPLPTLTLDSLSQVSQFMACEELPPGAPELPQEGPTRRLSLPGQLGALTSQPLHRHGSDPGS

The test concerns the target human ether-à-go-go-related gene (hERG) potassium channel (human, UniProt Q12809). Description: primary screen, population patch clamp on CHO cells stably expressing hERG.
Take `O=C(c1ccc(OC2CCN(CCc3ccccc3)CC2)cc1)N1CCCC1`: the “hERG current change (%, negative = inhibition) at 10uM” value is reported as -30%.

`C/C(=C\C(=O)c1cccnc1)Nc1ccc(C)c(C)c1`: the “hERG current change (%, negative = inhibition) at 10uM” value is on record as -20%.

Regarding `CC(=O)Nc1ccc(SC[C@H](Cc2ccccc2)N2CC[C@@H](C(C)(C)C)CCC2=O)cc1`, the “hERG current change (%, negative = inhibition) at 10uM” value was found to be 5.23%. `O=C(CN1C(=O)NC(Cc2ccccc2)C1=O)Nc1ccc(OC(F)F)cc1` (stereo not shown): the “hERG current change (%, negative = inhibition) at 10uM” value was -66.9%.

Take `Cc1ccc(S(=O)(=O)NC2=C(N3CCN(c4ccccc4F)CC3)C(=O)c3ccccc3C2=O)cc1`: the “hERG current change (%, negative = inhibition) at 10uM” value was 9.92%. In the case of `CCc1nc(SCC(=O)NC2CC2)c2c(C)c(C)sc2n1`, the “hERG current change (%, negative = inhibition) at 10uM” value is recorded as -0.782%.

As to `O=C(CCC1CCCCC1)Nc1ccccc1-c1ccccc1`, the “hERG current change (%, negative = inhibition) at 10uM” value is on record as -15.7%. With `Cc1ccc2sc(NNC(=O)C3=COCCO3)nc2c1C` the figure was -1.33%. The value for `C/C(=N\Nc1ccc(Cl)c(C(=O)O)c1)c1ccccn1` was 5.73%; that for `CC(C)(C)c1ccc(-c2ncccc2O)cc1.Cl` was 13.7%; that for `C=CCN1CCN(Cc2cnc(Cl)s2)CC1` was 9.96%. The value for `COc1ccc(N2CC(C(=O)N[C@@H](C)C(=O)N3CCCCC3)CC2=O)cc1` (stereo partly shown) was 1.73%; that for `CCO[C@@H]1OC(C(=O)N2CCCCCCC2)=C[C@H](c2ccc3c(c2)OCO3)[C@H]1CCCO` was -8.7%. Regarding `COC(=O)c1ccc(OCc2cc(=O)n3ccsc3n2)cc1`, the “hERG current change (%, negative = inhibition) at 10uM” value turned out to be 13.3%. With `CC(=O)Nc1ccc(CN(C)CC2CCCN(CCc3cccc(C(F)(F)F)c3)C2)cc1` (stereo not shown) the figure was -68.4%.

Regarding `COc1ccccc1CNC(=O)Cc1cc(=O)[nH]c(=O)[nH]1`, the “hERG current change (%, negative = inhibition) at 10uM” value is 5.37%. The value for `Cl.O=C(c1ccc2c(c1)OCCO2)N1CCN(Cc2ccccc2)CC1` was 2.59%; that for `Cc1nc(NS(=O)(=O)c2ccccc2)sc1C(C)(C)C` was -15.5%; that for `Clc1nc2nc3n(c2nc1Cl)CCC3` was -22.8%.

`CCCN(S(=O)(=O)c1ccc(OCC)cc1)S(=O)(=O)c1cccs1`: the “hERG current change (%, negative = inhibition) at 10uM” value is 8.45%. The value for `O=C(Nc1nccs1)c1nc(-c2ccccc2)n(-c2ccccc2)n1` was 6.62%; that for `OCC[C@@H]1C[C@@H](O)[C@H](O)[C@]2(CCCCO2)O1` was 16.8%; that for `COc1ccc(C2=NN(C(=O)c3ccccc3)C(c3ccccc3)C2)c(O)c1` (stereo not shown) was 16.9%. Regarding `Cc1ccc(NC(=O)CCNCc2ccco2)cc1S(=O)(=O)N(C)C.O=C(O)C(=O)O`, the “hERG current change (%, negative = inhibition) at 10uM” value is given as -5.26%. Consider `O=C(CN1CCc2ccccc2C1)NCC(=O)Nc1ccc(F)cc1`, for which the “hERG current change (%, negative = inhibition) at 10uM” value amounted to 13.5%. Consider `CC(Sc1cccc2cccc(C(=O)O)c12)C(=O)O` (stereo not shown), for which the “hERG current change (%, negative = inhibition) at 10uM” value is 22.5%. For the compound `O=C(Nc1ccc(Br)cn1)c1ccc([N+](=O)[O-])cc1Cl`, the “hERG current change (%, negative = inhibition) at 10uM” value is -4.01%. Take `O=C(C1=C(O)C(=O)N(CC2CCCO2)C1c1ccccc1F)c1ccco1` (stereo not shown): the “hERG current change (%, negative = inhibition) at 10uM” value is on record as 6.62%. Regarding `CCS(=O)(=O)c1nc(S(=O)(=O)c2ccc(C)cc2)c(N2CCN(C)CC2)s1`, the “hERG current change (%, negative = inhibition) at 10uM” value is on record as -6.55%. Consider `CCOCCCN(C)C1CCN(C(=O)c2oc3ccccc3c2NC(=O)c2ccc([N+](=O)[O-])cc2)CC1`, for which the “hERG current change (%, negative = inhibition) at 10uM” value is -75.9%.

As for `CC(C)COc1ccc(C(=O)OCC(=O)N(C)CC(=O)Nc2ccc(F)cc2)cc1`, the “hERG current change (%, negative = inhibition) at 10uM” value worked out at 6.57%. `CC1(C)CC(=O)c2c(nc(SCC(=O)Nc3nsc(-c4ccccc4)n3)c(C#N)c2-c2ccccc2)C1`: the “hERG current change (%, negative = inhibition) at 10uM” value came to 8.85%. The value for `Nc1cccc2c1C(=O)N(C(=O)/C=C/c1ccc(F)cc1)C2=O` was -13.7%.

Turning to `CSc1ccc(-c2nc(CSCC(=O)NCCCN3CCOCC3)c(C)o2)cc1`, the “hERG current change (%, negative = inhibition) at 10uM” value was -9.96%.

Turning to `C=CCN1C(=O)c2ccccc2Sc2ccc(C(=O)NCCC)cc21`, the “hERG current change (%, negative = inhibition) at 10uM” value is on record as -15.5%. Regarding `COCCn1c(SCC(=O)NC(=O)NCc2ccccc2)nc2ccccc21`, the “hERG current change (%, negative = inhibition) at 10uM” value is -28.7%. With `C1CCCC(N2CCNCC2)CC1.Cl` the figure was -6.79%; with `O=C(CN1C(=O)NC2(CCCCC2)C1=O)N(Cc1ccco1)Cc1cccs1`, -23.3%. With `Cc1ccc(S(=O)(=O)N2CCN(C(=O)N3CCOCC3)CC2)c(C)c1` the figure was -2.14%; with `CCOC(=O)C1CCN(c2cc(=O)n(Cc3ccc(F)cc3)c(=O)[nH]2)CC1`, 2.86%; with `O=C(COC(=O)CCOc1ccccc1)NCc1ccco1`, -6.91%.

On to `CCOC(=O)c1nn(-c2ccc(Cl)cc2)cc1O`, for which the “hERG current change (%, negative = inhibition) at 10uM” value came to 1.8%. With `COc1ccc(OCCNC(=O)/C=C/c2ccccc2)cc1` the figure was -2.37%; with `COCCCn1c(SCC(=O)NC2CCCC2)nnc1-c1ccncc1`, 0.367%; with `COc1ccc(O)c(CN2CCCC(N3CCN(c4ccccc4OC)CC3)C2)c1` (stereo not shown), -11%. The value for `Clc1ccc(-c2nnc(-c3ccccc3)c(-c3ccccc3)n2)cc1` was 9.87%; that for `COC(=O)c1cn(C(=O)c2ccc(C)c(C)c2)c2ccccc12` was 7.09%; that for `CNC(=O)c1cccc(NC(=O)c2cc(-c3ccccc3)nc3c2cnn3C(C)C)c1` was 1.39%. The value for `COC(=O)c1ccccc1NC(=O)c1cc[n+](C)cc1` was 11.8%; that for `O=C(c1cc(C2CC2)nn1-c1ccccc1)N1CCN(S(=O)(=O)c2cccc(F)c2)CC1` was -28.1%. As for `COc1cccc(CNC(=O)CCC2CCCN(Cc3ccc(OC(F)F)cc3)C2)c1` (stereo not shown), the “hERG current change (%, negative = inhibition) at 10uM” value is listed as -76.6%. Take `CCCC(C(=O)NCc1ccco1)N(C(=O)CNS(=O)(=O)c1ccccc1)c1ccccc1OC` (stereo not shown): the “hERG current change (%, negative = inhibition) at 10uM” value is -27.4%. The value for `Cc1ccc(N(C)C(=O)c2cnn(-c3ccccc3)c2C)c(C)c1` was -19.6%. For the compound `Cc1cc(Cl)ccc1NNC(=O)CCc1ccccc1`, the “hERG current change (%, negative = inhibition) at 10uM” value stood at 1.19%. In the case of `Cc1cnc([N+](=O)[O-])n1CCOC(=O)NC(=O)c1ccc(C(F)(F)F)cc1`, the “hERG current change (%, negative = inhibition) at 10uM” value is listed as -40.2%. The value for `Cc1nc2ncnn2c(N2CCN(c3cccc(C(F)(F)F)c3)CC2)c1C` was -64.1%.

As for `COc1ccc(NC(=O)COc2cccc(-n3cnnn3)c2)cc1Cl`, the “hERG current change (%, negative = inhibition) at 10uM” value turned out to be 24%. Consider `COCCCNC(=O)C1CCCN(S(=O)(=O)c2cccc3nsnc23)C1` (stereo not shown), for which the “hERG current change (%, negative = inhibition) at 10uM” value is listed as -0.124%. As to `CC(C)(C)C(C(=O)n1cccc1C#N)c1ccccc1` (stereo not shown), the “hERG current change (%, negative = inhibition) at 10uM” value is on record as 6.3%. The value for `O=C(CSc1nnc(-c2ccc3c(c2)OCO3)o1)Nc1ncc(Cl)cc1Cl` was -5.9%. The value for `COc1cccc(CNC(=O)CCNS(=O)(=O)c2cccc3nonc23)c1` was 12.4%. With `Oc1c(Cl)cc(Cl)cc1C1Nc2ccccc2-n2cccc21` (stereo not shown), the “hERG current change (%, negative = inhibition) at 10uM” value was found to be 12.7%. Consider `CC12CCC(=O)N1C(C(=O)Nc1nnc(SCc3ccccc3)s1)CS2` (stereo not shown), for which the “hERG current change (%, negative = inhibition) at 10uM” value is reported as -4.56%. The value for `Cc1cc(C)n(C(=O)c2ccncc2)n1` was 15.8%. The value for `COc1ccc(OC)c(-c2csc(NC(=O)CSCc3c(C)noc3C)n2)c1` was -6.01%. The value for `COc1cccc(OC)c1C(=O)OCC(=O)NC1CCCCCC1` was -2.11%. `COc1cccc(C2C(C(=O)NCc3ccccc3)=C(C)Nc3ncnn32)c1` (stereo not shown): the “hERG current change (%, negative = inhibition) at 10uM” value is reported as -11.3%. The value for `CN(CCOc1ccc(Cl)cc1)C(=O)c1cc([N+](=O)[O-])ccc1N1CCOCC1` was -66.7%. With `Fc1ccc(NC2=NCCS2)cc1Cl` the figure was -1.62%; with `O=C(CSc1nnc2ccccn12)NCc1cccs1`, 21.4%; with `Cc1[nH]c2ccccc2c1SCc1n[nH]c(=S)n1C`, 19.3%. As to `COc1ccc(CNCc2cccc(C)c2)cc1.O=C(O)C(=O)O`, the “hERG current change (%, negative = inhibition) at 10uM” value is on record as -15.2%.

For `CCOc1ccccc1N(C(=O)Cn1nnnc1-c1ccc(C)o1)C(CC)C(=O)NC(C)(C)C` (stereo not shown), the “hERG current change (%, negative = inhibition) at 10uM” value was -19.7%. Turning to `c1ccc(-n2cccc2)c(N2CCCCC2)c1`, the “hERG current change (%, negative = inhibition) at 10uM” value is reported as 3.76%.

In the case of `CC(CN1CCN(C)CC1)OC(=O)c1ccccc1.Cl` (stereo not shown), the “hERG current change (%, negative = inhibition) at 10uM” value is recorded as 7.83%. Turning to `O=C(CSc1nc2ccccc2n1S(=O)(=O)c1cccc([N+](=O)[O-])c1)NCCc1ccccc1`, the “hERG current change (%, negative = inhibition) at 10uM” value is on record as -7.8%. As to `O=C(NNC(=O)c1ccc(NC(=O)C2CC2)cc1)c1ccc(F)cc1`, the “hERG current change (%, negative = inhibition) at 10uM” value is on record as 4.27%.

As for `C[C@H](NC(=O)C1CCN(S(=O)(=O)c2ccccc2)CC1)C(=O)NCc1ccc(Cl)c(Cl)c1`, the “hERG current change (%, negative = inhibition) at 10uM” value came out at 9.58%.

On to `CCCCn1c(N)c(N(CCOC)C(=O)COC(=O)CCOc2ccc(C)cc2)c(=O)[nH]c1=O`, for which the “hERG current change (%, negative = inhibition) at 10uM” value was -21.9%. Take `Cc1ccc(N2CC(C(=O)Nc3nccs3)CC2=O)cc1` (stereo not shown): the “hERG current change (%, negative = inhibition) at 10uM” value was -5.15%. Consider `Clc1ccc2nncn2n1`, for which the “hERG current change (%, negative = inhibition) at 10uM” value came to 10.8%. As to `O=C(Nc1ccnn1C1CCN(C(=O)c2ccc(F)c(Cl)c2)CC1)C1CC1`, the “hERG current change (%, negative = inhibition) at 10uM” value was determined as 3.98%. The value for `CC(C)(C)NC(=O)C(OC(=O)c1ccco1)c1ccccc1F` (stereo not shown) was -1.43%. The value for `S=c1[nH]nc(-c2ccccn2)n1/N=C/c1cccs1` was 5.73%; that for `COc1ccc(CCN=C(N)NS(=O)(=O)c2ccc3ccccc3c2)cc1` was 7.75%; that for `CCC(C)(C)NC(=O)C1CCCN(S(=O)(=O)c2ccc3c(c2)CC(C)N3C(=O)C2CC2)C1` (stereo not shown) was -8.29%. The value for `Cc1ccc(S(=O)(=O)N2CCN(C(=O)COC(=O)Cc3ccc(Cl)cc3)CC2)c(C)c1` was -5.7%; that for `Cc1ccc(C2(C)NC(=O)N(CC(=O)N(Cc3ccccc3)C(C)(C)C)C2=O)cc1` (stereo not shown) was -1.1%.
